# Measurements: the supplement of paper PMC12889115
# Some of the results follow. Cut-off read from the data, not from the text of the source: active = 25% or less and inactive = the rest. Repeats are few or missing, and single values can be far off.
# What was measured:
# [1] = test system: Salmonella enterica serovar Typhimurium SL1344; assay: bacterial growth OD600 after 18 h in MHB with 0.5 µg/mL polymyxin B; higher = more bacterial growth (less inhibition); details: 25 µM; polymyxin B 0.5 µg/mL; system: broth
# Description: (§1)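 Secondary screen of the 553 primary hits at 25 µM. (i) S. Typhimurium SL1344 grown in Mueller-Hinton broth with 0.5 µg/mL polymyxin B, OD600 read after 18 h. (ii) SAFIRE assay: RAW 264.7 macrophages infected with S. Typhimurium sifB::gfp (MOI 30); compound added 2 h post-infection; cells fixed at 18 h; GFP-positive pixel fraction per macrophage imaged by confocal microscopy and expressed as % of DMSO control.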
# [2] = test system: Salmonella enterica serovar Typhimurium SL1344; assay: intramacrophage bacterial GFP load (SAFIRE), percent of DMSO control (% of DMSO); higher = more intracellular bacteria (less inhibition); details: 25 µM; system: infected RAW 264.7 macrophages
# Description: as §1
# 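Throughout, for bacterial growth OD600 after 18 h in MHB with 0.5 µg/mL polymyxin B: polymyxin B level opens the outer membrane while sparing the inner membrane, with novobiocin wells as reference growth inhibitor.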
# 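Throughout, for intramacrophage bacterial GFP load (SAFIRE), percent of DMSO control: compounds tested were the hits of an earlier 50 µM broth growth screen of a drug-like diversity library run with polymyxin B.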
SMILES,bacterial growth OD600 [1],intramacrophage bacterial GFP load [2]
Cc1ccccc1C(NC1CCN(c2ccc(NC(=O)c3ccccc3F)cc2)CC1)c1ccncc1 (stereo unspecified),0.463,inactive: 252
O=C(c1coc(COc2ccccc2F)n1)N1CCc2c(Cl)cccc2C1,-0.002,inactive: 217
CCOC(=O)C1(Cc2ccc(F)cc2)CCCN(C(=O)c2cn3c(C)cccc3n2)C1 (stereo unspecified),0.551,inactive: 51.6
COCCN1C(=O)CC(CC(=O)N2CCCC(c3cccc(C)c3)C2)(c2ccccc2OC)C1=O (stereo unspecified),-0.006,inactive: 86.8
COc1cccc(C2(CC(=O)N(C)Cc3nc4ccccc4s3)CC(=O)N(C3CCCC3)C2=O)c1 (stereo unspecified),-0.009,inactive: 112
Cc1cnccc1CN(C)C(=O)CC(c1cccc(O)c1)c1cccc(Cl)c1 (stereo unspecified),0.002,inactive: 72.4
CC(Cc1ccccn1)NC(=O)CN1Cc2ccccc2OC(c2ccccc2F)C1 (stereo unspecified),0.006,inactive: 48.3
O=C(c1coc(Cn2cnc3ccccc32)n1)N1CCC(C2CCCCC2)C1 (stereo unspecified),0.004,inactive: 40.3
COc1cc(CC2(CCC(=O)N(C)Cc3cnn(-c4ccccc4C)c3)CCC(=O)N2)ccc1F (stereo unspecified),0.437,inactive: 87.4
CC(C)S(=O)(=O)c1ncc(CN(C)Cc2ccco2)n1Cc1ccccc1F,0.007,inactive: 152
CN(C)c1ccc(CN2CCOc3ccc(C(C)(O)COc4ccccc4)cc3C2)cc1 (stereo unspecified),0.003,active: 7.43
COc1ccccc1CCC(=O)N1CCc2onc(-c3ccc(Cl)cc3)c2C1,-0.002,inactive: 150
O=C(c1cc2ccccc2s1)N1CCCC(Nc2ccc3c(c2)OCCO3)C1 (stereo unspecified),0.004,inactive: 57.9
